Screen size: about 150,000 compounds; about 540 (0.36%) showed an effect of 50% or more. This is one part of the list.

For this assay, the system named is Plasmodium falciparum. The experiment in a line: Primary screen in NF54 nanoGlo assay, in single point, at 2uM, 72h; a lower Z score goes with more inhibition. The format is functional, Erythrocyte. To be noted: timepoint 72 hour.
One may read the % Inhibition as the change of the read-out against control, counted positive when it falls. `CCc1nc(C)c(C(=O)N2CCC[C@H]2c2nc3ccccc3s2)o1`: the “% Inhibition” value is on record as 1% and the Z score is reported as -0.11.

Regarding `Cn1nnnc1N1CCCC2CN(CCC#N)CC21` (centres undefined), the “% Inhibition” value is on record as 2% and the Z score is listed as -0.27.

`Cc1ncc(-c2cnc(C3CC3)o2)cc1N`: the “% Inhibition” value is on record as -4% and the Z score worked out at 0.8.

`N#Cc1c(N)c(-c2ccccc2)c(F)c2ccccc12`: the “% Inhibition” value is -4% and the Z score came to 0.57.

Take `COCC(=O)N1CCN(S(=O)(=O)c2ccccc2)C[C@@H]1C(=O)N[C@H](Cc1cccnc1)C(=O)OC`: the “% Inhibition” value was found to be 11% and the Z score was -1.7.

With `CN(Cc1cnn(C)c1)C(=O)c1cn(C(c2ccccc2)c2ccccc2)nn1`, the “% Inhibition” value was found to be 3% and the Z score is -0.34.

As for `CCCCc1nc(COc2ccc3ncccc3c2)cs1`, the “% Inhibition” value is 1% and the Z score was -0.12.

Consider `COc1ccccc1S(=O)(=O)N1Cc2cncnc2C1`, for which the “% Inhibition” value is -14% and the Z score is 2.44.

For the compound `Cc1ccc(Br)cc1NC(=O)CCNC(=O)c1ccc(-n2ccc(C(F)(F)F)n2)cc1`, the “% Inhibition” value is on record as -10% and the Z score is reported as 1.97.

For `CC(C)[C@H](C)N(C(=O)c1cc(-c2ccc(F)cc2)[nH]n1)C1CC1`, the “% Inhibition” value is given as -7% and the Z score came out at 0.83.

Take `CN(C[C@@H](O)CNC(=O)OC(C)(C)C)C(=O)CCc1ccccn1`: the “% Inhibition” value is -4% and the Z score stood at 0.52.

`CN1C(C(=O)N2CCOCC2)=CC(c2ccc3c(c2)OCO3)=NS1(=O)=O`: the “% Inhibition” value is reported as -8% and the Z score turned out to be 1.58.

With `Cc1cc(=O)n(CC(=O)NCc2ccccc2Br)c(N2CCOCC2)n1`, the “% Inhibition” value is listed as -19% and the Z score worked out at 1.65.

Take `CCOc1ccc([C@@H]2CC(c3ccccc3Cl)=NN2C(=O)CN2CCOCC2)cc1`: the “% Inhibition” value worked out at 6% and the Z score was -0.91.

For the compound `CCCc1cc([C@@H]2CCCN2Cc2c[nH]nc2-c2cccs2)no1`, the “% Inhibition” value was -6% and the Z score came to 0.75.

Regarding `Cc1nc2cc(N(C)C(=O)C[C@@H]3C[C@H]3c3ccccc3)ccc2[nH]1`, the “% Inhibition” value turned out to be 0% and the Z score was 0.07.

Take `Cc1noc(COC2CN(C(=O)Nc3c(C)cc(Cl)c4ccccc34)C2)n1`: the “% Inhibition” value was -4% and the Z score is 0.8.

Regarding `COCc1nc(C(=O)OCc2nc(C)c(C)s2)cs1`, the “% Inhibition” value is reported as -5% and the Z score stood at 0.98.

Turning to `CCCC(C(=O)N1CCCCC1c1ncon1)C(C)C` (centres undefined), the “% Inhibition” value is recorded as -2% and the Z score was 0.23.

`CN(Cc1ccno1)C(=O)c1ccc(CCC(C)(C)O)cc1`: the “% Inhibition” value is -12% and the Z score came out at 1.1.

Regarding `CCn1c(N)c(C(=O)CN2CCCCCC2)c(=O)[nH]c1=O`, the “% Inhibition” value is given as -10% and the Z score amounted to 0.91.

With `Cc1c(Cl)cccc1NC(=O)CCNC(=O)NC[C@H]1CCCO1`, the “% Inhibition” value came to 3% and the Z score is -0.4.

For `Cc1nc(C2CCCC2)sc1C(=O)N1CC(=O)Nc2cccnc21`, the “% Inhibition” value came out at 21% and the Z score is -2.42.

As for `CNC(=O)[C@@H]1C[C@@H](n2cc(C(C)(C)NC(=O)Nc3ccccc3C)nn2)CN1`, the “% Inhibition” value is -12% and the Z score is recorded as 1.7.

`CC(C)c1noc([C@H](C)NC(=O)CCS(C)(=O)=O)n1`: the “% Inhibition” value is -12% and the Z score worked out at 1.59.

For the compound `C=C(C)COc1ccccc1C(=O)N1CCc2[nH]nc(C(C)C)c2C1`, the “% Inhibition” value is on record as -14% and the Z score is given as 1.79.

Take `FC1(F)CC(Nc2cc(NC3CC(F)(F)C3)n3ncnc3n2)C1`: the “% Inhibition” value is reported as -3% and the Z score stood at 0.48.

Turning to `COc1cc2c(cc1OC)CN(C(=O)CC(c1ccccc1)c1ccccc1)CC2`, the “% Inhibition” value is reported as -9% and the Z score was 1.23.

For `C[n+]1ccc(-c2ncc(-c3ccccc3)o2)c2ccccc21`, the “% Inhibition” value is 75% and the Z score is on record as -5.73.

On to `Cc1ccccc1Cn1cnc2c1c(=O)n(C1CCCC1)c(=O)n2-c1ccc(C(C)C)cc1`, for which the “% Inhibition” value was -14% and the Z score is on record as 1.28.

`COc1ccc2c(c1)OCCN(c1ncccn1)C2`: the “% Inhibition” value was 6% and the Z score is -0.52.

For `O=C(CS(=O)(=O)c1ccccc1)N1CCOCC1`, the “% Inhibition” value was -8% and the Z score was 1.27.

As for `CC1CCCC(C(=O)NCc2cccc(=O)[nH]2)C1` (centres undefined), the “% Inhibition” value was determined as 22% and the Z score is reported as -2.51.

Consider `Fc1ccc(CCNc2cnccn2)cc1F`, for which the “% Inhibition” value is -14% and the Z score turned out to be 2.19.

For `O=C(NCc1cccc(C(F)(F)F)c1F)[C@H]1CCOC1`, the “% Inhibition” value was -11% and the Z score amounted to 0.98.

As to `Cc1ccc(S(=O)(=O)n2ccc3cccnc32)cc1`, the “% Inhibition” value is -15% and the Z score was found to be 2.83.

`Cc1cnn(Cc2ccccc2Cl)c1NC(=O)c1cnc2ccccn12`: the “% Inhibition” value is on record as -8% and the Z score is recorded as 1.09.

With `CCCc1nc(N(C)C[C@H]2CCN(C)C2(C)C)no1`, the “% Inhibition” value is -10% and the Z score amounted to 1.41.

With `Cc1ccc(C)n1-c1ccc(Cl)c(C(=O)NC[C@H](C)N2CCCC2)c1`, the “% Inhibition” value is recorded as -9% and the Z score is listed as 0.85.

For `CCCC(=O)N1CCN(c2cc(-n3ccc(C)n3)ncn2)CC1`, the “% Inhibition” value was 1% and the Z score is -0.09.

For `O=C(Nc1ccccc1C(=O)N1CCCCC1)C1CCN(S(=O)(=O)Cc2ccc(F)cc2)CC1`, the “% Inhibition” value is 3% and the Z score is -0.49.

As to `O=C(c1ccccc1)c1c2ccccn2c2cccc[n+]12`, the “% Inhibition” value was found to be 7% and the Z score is -0.76.

The values above are taken from ChEMBL document CHEMBL4888484, “Replenishing the malaria drug discovery pipeline: Screening and hit evaluation of the MMV Hit Generation Library 1 (HGL1) against asexual blood stage Plasmodium falciparum ,using a nano luciferase reporter read-out” (2022).
